# Measured values published in PubChem BioAssay AID463173 (ICCB-Longwood Screening Facility, Harvard Medical School, 2010).
# The campaign covered roughly 52,000 compounds. About 1,700 (3.3%) were called active. Rule as the data show it: active = survival mostly below about 52% (no sharp cut-off); inactive = mostly above about 56%. The list shows a part of the results.
# Test system: Wild type
# Test: growth inhibition of S. aureus wild type versus tarO mutant, primary screen, teichoic acid synthesis inhibitors, RN4220, OD600 (AID 463173)
# Settings: S. aureus RN4220 wild type/DeltatarO growth, OD600, 18 h, active compounds read low, screened at 18.75 µg/mL (by protocol)
row,Compound,survival
1,COCC(C)Nc1ncnc2c1cnn2-c1cccc(Cl)c1 (centres undefined),inactive: 99%
2,COc1ccc(C(=O)Oc2ccc(C3NC(=O)c4c(sc5c4CCN(C)C5)N3)cc2OC)cc1 (centres undefined),inactive: 77%
3,Cc1ccc(Cl)cc1N1CCN(C(=O)c2cc(S(=O)(=O)N3CCCCC3)cn2C)CC1,inactive: 82%
4,CC(=O)c1ccc(NC(=O)COc2ccccc2-c2nc(-c3ccccc3)no2)cc1,inactive: 89%
5,COCc1cc(C)nc2sc3c(c12)NC(c1ccccc1C(=O)O)N(c1ccc(OC)cc1)C3=O (centres undefined),inactive: 85%
6,CCOC(=O)c1c(C)[nH]c(C)c1S(=O)(=O)NCC(=O)N1CCN(c2cc(Cl)ccc2C)CC1,inactive: 123%
7,O=C(CCSCc1ccccc1Cl)N1CCN(c2ccc(F)cc2)CC1,inactive: 53%
8,CC(Oc1ccccc1)C(=O)N1CCN(Cc2cc(=O)n3nc(-c4ccccc4Cl)sc3n2)CC1 (centres undefined),inactive: 94%
9,CCc1ccc(C(=O)c2cn(CC(=O)Nc3ccc4c(c3)OCCO4)c3ccc(C)cc3c2=O)cc1,inactive: 84%
10,O=c1cc(CN2CCN(S(=O)(=O)c3ccccc3)CC2)nc2sc(-c3ccccc3Cl)nn12,inactive: 71%
11,O=c1c2c3c(sc2n(Cc2cc(=O)n4ccccc4n2)c(=O)n1-c1ccccc1)CCC3,inactive: 81%
12,Cc1ccc(C)c(NC(=O)c2nnn(CC(=O)Nc3cccc(C)c3C)c2N)c1,inactive: 88%
13,Cc1ccc(NC(=O)C(Cc2ccccc2)NS(=O)(=O)c2cccs2)cc1Cl (centres undefined),inactive: 109%
14,CCn1c(/N=C/c2ccc(OC)cc2O)nc2ccccc21,inactive: 106%
15,O=C(CS(=O)(=O)c1nc(-c2ccc(Cl)cc2)cn1-c1ccccc1)Nc1ccc(F)cc1F,inactive: 63%
16,COc1ccccc1CNC(=O)CN1C(=O)c2cccnc2Oc2ccccc21,inactive: 64%
17,CCC(=O)N(Cc1cc2ccc(C)cc2n2nnnc12)C1CCCCC1,inactive: 105%
18,Cc1ccc(-c2noc(CSc3nnc(C)n3-c3ccc(C)cc3)n2)cc1,inactive: 105%
19,COc1ccc(OCCSc2nc3ccccc3n2CC(=O)N2CCOCC2)cc1,inactive: 83%
20,COc1ccc(NC(=O)CCCc2nnc3n(CCC(C)C)c(=O)c4sccc4n23)cc1Cl,inactive: 83%
21,CCOc1ccc(CNC(=O)C2CCN(C(=O)c3sccc3-n3cccc3)CC2)cc1,inactive: 77%
22,Cc1ccc(-n2c(SCCC(C)C)nc3sc4c(c3c2=O)CC(C)(C)OC4)cc1,inactive: 76%
23,CCC(=O)Nc1cc(C(F)(F)F)ccc1N1CCCC1,inactive: 104%

row,Compound,survival
1,CC(C)Oc1ccc(C(=O)N2CC(=O)Nc3ccc(F)cc3C2c2ccc(F)cc2)cc1 (centres undefined),inactive: 78%
2,CCOc1ccc(CNC(=O)CN2C(=O)C3CCCCN3c3ccc(C(=O)N4CCCC4)cc32)cc1 (centres undefined),inactive: 132%
3,CC1CCCCN1C(=O)C1CCCN(S(=O)(=O)c2ccccc2)C1 (centres undefined),inactive: 103%
4,COCCNc1ncnc2onc(-c3ccc(F)cc3)c12,inactive: 78%
5,COc1ccccc1CNC(=O)c1cc2cc(C)ccc2n1C,inactive: 86%
6,O=C(Cn1c(C(=O)OCCO)cc2ccccc21)c1ccccc1,inactive: 117%
7,O=C(COc1ccccc1)NCC1COc2ccccc2O1 (centres undefined),inactive: 95%
8,CN(C)c1cccc(C(=O)N2CCC(c3ccncc3)CC2)c1,inactive: 72%
9,COc1cc(CNc2ccc3[nH]c(=O)[nH]c3c2)cc(Br)c1OCc1ccc(F)cc1,inactive: 117%
10,CCOC(=O)c1c(NC(=O)CSc2nccn2C)sc2c1CCCC2,inactive: 125%
11,COc1ccc(Cn2ccc3nc(C)c(C(=O)N4CCN(c5cc(C)ccc5C)CC4)cc3c2=O)cc1,inactive: 87%
12,O=C(O)CCc1ccc(-c2cccs2)n1CC(=O)Nc1ccccc1C(F)(F)F,inactive: 105%
13,O=C(CSc1nc(-c2ccccc2)nc2c1CCCC2)c1ccc(Cl)cc1,inactive: 73%
14,CCOc1ccc(CNC(=O)c2cnc3sc(N4CCCCCC4)nn3c2=O)cc1OC,inactive: 89%
15,Cc1ccc(S(=O)(=O)c2nc(S(=O)(=O)c3ccc(C)cc3)c(NC(C)C)s2)cc1,inactive: 91%
16,Cc1ccc(C)c(NC(=O)Cn2c(=O)n(Cc3ccc4c(c3)OCO4)c(=O)c3ccc(C(=O)NC4CCCCC4)cc32)c1,inactive: 88%
17,CCc1cccc(C)c1NC(=O)C(CC)n1ncn2c(cc3cc(C)ccc32)c1=O (centres undefined),inactive: 93%
18,CCCN(C(=O)c1sc2nc3n(c(=O)c2c1C)CCCC3)c1ccccc1C,inactive: 80%
19,Cc1ccc2c(c1)CC(C)N2S(=O)(=O)c1nnc(NC(=O)C(C)C)s1 (centres undefined),inactive: 81%
20,Cc1cccc(NC(=O)C2CCN(S(=O)(=O)c3ccc4c(c3)CCCC(=O)N4)CC2)c1,inactive: 100%
21,CCCNC(=O)C1CCC(Cn2c(=O)c3sccc3n(CC(=O)Nc3ccccc3C)c2=O)CC1 (centres undefined),inactive: 66%
22,CC(=O)Nc1ccc(S(=O)(=O)N2CCC(NC(=O)Nc3cccc(F)c3)CC2)cc1,inactive: 99%
23,CCOc1ccc(CCNC(=O)c2sc3ncccc3c2-n2c(C)ccc2C)cc1,inactive: 124%

row,Compound,survival
1,CCc1noc(-c2ccc(N(C)Cc3ccc(OC)cc3)c([N+](=O)[O-])c2)n1,inactive: 82%
2,COC(=O)c1c(NC(=O)c2cc3nc(-c4ccc(Br)cc4)cc(C(F)(F)F)n3n2)sc2c1CCCC2,inactive: 82%
3,COc1ccc(OC)c(NC(=O)N2CCC(N3CCN(Cc4ccc(F)cc4)C(=O)C3=O)CC2)c1,inactive: 72%
4,CCc1ccc(Nc2cc(C(=O)NCCCN(C)c3ccccc3)c3ccccc3n2)cc1,inactive: 84%
5,COc1ccc(-c2cc(C(F)(F)F)nc(SCCC(=O)Nc3cccc(O)c3)n2)cc1,inactive: 80%
6,Cc1cc(=O)n(CC(=O)Nc2cccc([N+](=O)[O-])c2)c(-n2nc(C)cc2C)n1,inactive: 78%
7,CC(NC(=O)c1ccc2nc(Cc3ccccc3)oc2c1)c1ccccc1 (centres undefined),inactive: 78%
8,O=C(c1ccco1)c1cn(CC(=O)N2CCc3ccccc3C2)c2ccccc12,inactive: 129%
9,COc1ccc(NC(=O)Cn2cc(C(=O)C3CCCCC3)c3ccccc32)cc1,inactive: 79%
10,Cc1c(Cl)cccc1NC(=O)C(=O)NCC(c1cccnc1)N1CCN(c2ccccc2)CC1 (centres undefined),inactive: 85%
11,CCNC(=O)C1CCN(S(=O)(=O)c2ccc(C)cc2)CC1,inactive: 117%
12,O=C(C1CCN(S(=O)(=O)Cc2ccccc2)CC1)N1CCN(c2ccccc2F)CC1,inactive: 85%
13,CCc1ccccc1NC(=O)C(C)n1nc(-c2ccc(C)c(C)c2)ccc1=O (centres undefined),inactive: 86%
14,Cc1cccc(Cn2cc(C(=O)Nc3ccc(S(N)(=O)=O)cc3)ccc2=O)c1,inactive: 78%
15,COc1ccc(Cl)cc1NC(=O)N1CCC(CN2CCCCCC2)CC1,inactive: 55%
16,Cc1ccc(C)c(Nc2nc3nonc3nc2Nc2cccc(C)c2C)c1,active: 4%
17,CC1=C(C(=O)OCC2CCCCC2)C(c2ccc(Cl)cc2Cl)CC(=O)N1 (centres undefined),inactive: 82%
18,CSc1cccc(NC(=O)Cn2cnc(S(=O)(=O)N3CCCC3)c2)c1,inactive: 71%
19,O=C(Nc1ccccc1OCc1cc(=O)n2ccccc2n1)c1ccccc1F,inactive: 51%
20,CCCn1c2ccccc2c2cnn(CC(=O)NCc3cc(OC)ccc3OC)c(=O)c21,inactive: 124%
21,CCCCNC(=O)CN1C(=O)COc2ccc(S(=O)(=O)N3CCCC3)cc21,inactive: 79%
22,COc1ccc(CNC(=O)CN2C(=O)CSc3ccc(S(=O)(=O)N4CCCC4)cc32)cc1,inactive: 94%
23,CCOC(=O)c1cccc(NC(=O)C(Cc2ccccc2)NS(=O)(=O)c2cccc3nsnc23)c1 (centres undefined),inactive: 93%

row,Compound,survival
1,CCC(=O)Nc1ccc(NC(=O)c2ccc(F)cc2)nc1,inactive: 103%
2,COc1ccc(CNC(=O)C(=O)NCC(c2ccco2)S(=O)(=O)c2ccc(C)cc2)cc1 (centres undefined),inactive: 136%
3,COC(=O)c1ccc(Cn2nnc3sc4c(c3c2=O)CCCC4)cc1,inactive: 77%
4,COc1cc2nc(Nc3ccc(F)cc3)nc(N)c2cc1OC,inactive: 87%
5,CCc1ccccc1OCCSc1nnc(-c2cc(OC)c(OC)c(OC)c2)o1,inactive: 118%
6,CCC1SC(NC(=O)COc2ccc(OC)cc2)=NC1=O (centres undefined),inactive: 100%
7,COc1ccc(NC(=O)CN(C)S(=O)(=O)c2cccc3nsnc23)cc1,inactive: 79%
8,CC(C)Oc1ccc(CSCCN)cc1,inactive: 105%
9,Cc1cc(S(=O)(=O)NCC(c2ccc(N(C)C)cc2)N2CCOCC2)ccc1F (centres undefined),inactive: 82%
10,O=C(CSC1=Nc2ccccc2N=C(c2ccc(F)cc2)C1)NCc1ccc(Cl)cc1,inactive: 75%
11,CCN(CC)c1ccc(NC(=O)c2cc3c(=O)n4cccc(C)c4nc3n2C)c(C)c1,inactive: 94%
12,CCCCCNC(=O)CCn1c(=O)[nH]c2ccccc2c1=O,inactive: 140%
13,CCn1nc(C)c2c(-c3ccccc3)cc(=O)n(C(C)C(=O)NCc3ccc(C)cc3)c21 (centres undefined),inactive: 127%
14,CC(=O)c1ccc(NC(=O)c2nc3ccccc3n(C)c2=O)cc1,inactive: 74%
15,COc1ccc(/C=C/c2nc3ccccc3c(=O)n2-c2cccc(C(F)(F)F)c2)cc1,inactive: 65%
16,O=S1(=O)CCC(N=Cc2ccc(-c3ccc(Br)cc3)o2)C1 (centres undefined),inactive: 113%
17,C=CCN(CC=C)C(=O)CCN1C(=O)c2ccccc2C1=O,inactive: 112%
18,Cc1ccc(CN(C(=O)COc2ccc(Cl)cc2Cl)C2CCS(=O)(=O)C2)o1 (centres undefined),inactive: 89%
19,Cc1[nH]c(=O)[nH]c(=O)c1S(=O)(=O)N1CCN(c2cccc(Cl)c2)CC1,inactive: 65%
20,O=C(Nc1cccc(C(F)(F)F)c1)Nc1nnc(N2CCCCC2)s1,inactive: 88%
